Measurements as given in PubChem BioAssay AID686971 (National Center for Advancing Translational Sciences (NCATS), 2013).
Hit rate of the full screen: of about 360,000 compounds, about 7,500 (2.1%) were called active. Inconclusive results, whose numbers are uncertain, are shown with a selection of clear calls. Calls come from the whole dose curve; as a rule, active = well fitted cell-killing curve with a large enough effect; inconclusive = small, poorly fitted or top-dose-only effect, or effect the other way, or another doubt; inactive = no such curve, though single readings can be large or run the other way. Potencies of inconclusive entries are left out as doubtful fits.

Assay: qHTS for induction of synthetic lethality in tumor cells producing 2HG: qHTS for the HT-1080-IDH1KD cell line;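 for activity, negative = toxicity: 0% = DMSO wells and -100% = cell-free medium wells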
Details: HT-1080 IDH1 knockdown viability, ATP luminescence, 48 h; activity, negative = toxicity: at 46.1 µM (top of the series) unless noted
Procedure, shortened: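 Using the IDH1-knockdown HT-1080 line run in the same batch and compound series as the NT line, viability after 48 h at 37 °C was determined by CellTiter-Glo luminescence and expressed as % activity.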
Potency is the fitted concentration of half-maximal effect; tags give direction and shape of the fitted curve.

Row | Structure (SMILES) | Potency | activity, negative = toxicity
1 | Cc1cc2cc(C)c(NCCNC(=O)c3cccc(F)c3)nc2cc1C | inconclusive [cytotoxic, partial curve] | 
2 | COc1ccc(OC)c(NC(=O)Nc2nc(C(N)C(C)C)cs2)c1 (centres undefined) | inconclusive [cytotoxic, single point] | 
3 | COc1ccccc1NC(=O)C1=C(C)N(c2ccccc2)C(=S)NC1c1cccc(C(F)(F)F)c1 (centres undefined) | inconclusive [cytotoxic, single point] | 
4 | CC(C)NC(=O)c1ccc2c(=O)n(C3CCCC3)c(=S)[nH]c2c1 |  | inactive: 26.2%
5 | CC12CC3(C)CC(C)(C1)CC(C(=O)NC1=NCCS1)(C2)C3 |  | inactive: 2.91%
6 | CCc1nc(N2CCCCC2)c2oc3ccccc3c2n1 | inconclusive [cytotoxic, single point] | 
7 | O=C(NCc1ccco1)c1noc2c1CCCC2 | inconclusive [cytotoxic, single point] | 
8 | COC(=O)c1ccccc1Oc1c(F)c(F)nc(N2CCOCC2)c1F | inconclusive [rising, full curve, poor fit] | 
9 | CCOc1cc(S(=O)(=O)Nc2cc(C)cc(C)c2)ccc1Cl | inconclusive [cytotoxic, single point] | 
10 | CC1(c2nnnn2-c2ccc3c(c2)OCCO3)CCC(=O)N1Cc1cccnc1 (centres undefined) |  | inactive: 7.54%
11 | CC1(C(=O)NC(=S)NNC(=O)c2ccncc2)CCCCC1 | inconclusive [cytotoxic, partial curve] | 
12 | Cc1ccccc1S(=O)(=O)NC(=O)C1(C)CCN1C(=O)C(C)(C)c1ccccc1 (centres undefined) | inconclusive [rising, partial curve] | 
13 | CCCc1nc2c(C)cc(C)cc2c(N)c1CC | inconclusive [cytotoxic, partial curve] | 
14 | OCCC1CN(Cc2nc(-c3ccc(F)cc3)cs2)CCN1CCc1ccccc1 (centres undefined) |  | inactive: -16.5%
15 | Cc1ccc(Cn2c(C3CCCN3c3nc(-c4ccc(F)cc4)cs3)nc3cc(C(=O)NCCCO)ccc32)cc1 (centres undefined) | inconclusive [cytotoxic, partial curve] | 
16 | FC(F)(F)c1ccccc1Cc1c(C2CCCCC2)nc2ccc(Br)cn12 | inconclusive [cytotoxic, single point] | 
17 | CCc1ccc2[nH]c3nc(N/N=C/c4ccc(O)cc4O)nnc3c2c1 | active: 5.17 µM | 
18 | Cc1ccc(Cl)cc1NC(=O)Nc1c(C)n(C)n(-c2ccccc2)c1=O |  | inactive: -0.732%
19 | CN(C)c1ccc(/C=C/C(=O)c2cccc(Br)c2)cc1 | inconclusive [cytotoxic, single point] | 
